Among all 310,000 compounds or so, about 2,200 (0.71%) showed an effect of 50% or more. The effect is printed as a negative number. This is one part of the list.
The molecules below were run against human ether-à-go-go-related gene (hERG) potassium channel (human, UniProt Q12809) (assay: primary screen, population patch clamp on CHO cells stably expressing hERG).
Sequence of human ether-à-go-go-related gene (hERG) potassium channel (Q12809 whole entry, looked up): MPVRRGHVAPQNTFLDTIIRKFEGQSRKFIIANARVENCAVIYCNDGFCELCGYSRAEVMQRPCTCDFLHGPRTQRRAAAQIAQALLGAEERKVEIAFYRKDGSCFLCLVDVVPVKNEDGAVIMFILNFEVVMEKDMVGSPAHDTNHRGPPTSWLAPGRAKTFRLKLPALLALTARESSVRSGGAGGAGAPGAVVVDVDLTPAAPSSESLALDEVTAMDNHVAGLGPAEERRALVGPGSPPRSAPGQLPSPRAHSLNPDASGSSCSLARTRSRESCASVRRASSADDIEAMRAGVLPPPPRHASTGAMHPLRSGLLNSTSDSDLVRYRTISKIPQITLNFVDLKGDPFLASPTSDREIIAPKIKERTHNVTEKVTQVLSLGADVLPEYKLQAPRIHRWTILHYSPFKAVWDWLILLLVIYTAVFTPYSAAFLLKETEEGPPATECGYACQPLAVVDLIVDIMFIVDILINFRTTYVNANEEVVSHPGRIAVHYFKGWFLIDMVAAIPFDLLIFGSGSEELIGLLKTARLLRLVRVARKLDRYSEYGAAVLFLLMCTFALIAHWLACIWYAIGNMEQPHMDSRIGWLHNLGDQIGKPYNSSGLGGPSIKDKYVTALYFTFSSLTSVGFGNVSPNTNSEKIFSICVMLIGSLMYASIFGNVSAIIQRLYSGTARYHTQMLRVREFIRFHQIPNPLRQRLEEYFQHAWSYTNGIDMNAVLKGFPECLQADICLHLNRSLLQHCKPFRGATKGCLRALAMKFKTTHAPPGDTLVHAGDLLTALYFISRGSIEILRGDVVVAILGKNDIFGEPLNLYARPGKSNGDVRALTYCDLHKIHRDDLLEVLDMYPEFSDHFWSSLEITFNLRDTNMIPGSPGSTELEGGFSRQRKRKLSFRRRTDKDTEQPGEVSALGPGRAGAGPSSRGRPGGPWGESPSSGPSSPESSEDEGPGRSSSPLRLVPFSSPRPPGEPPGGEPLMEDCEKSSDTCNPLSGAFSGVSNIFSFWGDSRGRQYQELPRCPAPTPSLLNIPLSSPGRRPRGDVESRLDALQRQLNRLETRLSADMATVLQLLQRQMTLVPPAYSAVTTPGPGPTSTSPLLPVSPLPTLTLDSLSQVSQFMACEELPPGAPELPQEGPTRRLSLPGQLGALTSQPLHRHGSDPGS

Row | Compound | hERG current change (%, negative = inhibition) at 1uM [%]
1 | CC1CN(C(=O)CCC(=O)NCc2ccccc2)c2ccccc2S1 (centres unmarked) | 4
2 | CCN(CC)C(=O)c1ccc(NC(=O)c2cc(S(=O)(=O)N3CCCCCC3)ccc2OC)cc1 | 4.29
3 | COC(=O)c1cc(C(=O)Nc2ccc(S(=O)(=O)NC(C)(C)C)cc2)cc([N+](=O)[O-])c1 | -2.16
4 | CCn1c(=NC(=O)c2ccc(N3C(=O)CCC3=O)cc2)sc2c(OC)ccc(OC)c21 | 11.4
5 | CCOc1ccc(C(=O)OCC(=O)N2CCOCC2)cc1OCC | 12.8
6 | CCOCCCNCc1cc(Br)ccc1OCC.Cl | -9.52
7 | COc1ccc(C)cc1NC(=O)c1ccoc1C | 7.47
8 | CCOc1ccccc1NC(=O)c1nc(S(=O)(=O)Cc2ccccc2)ncc1Cl | 13.5
9 | CC(C)c1ccc(S(=O)(=O)N2CCN(C(=O)CCNC(=O)Nc3ccccc3)CC2)cc1 | 7.73
10 | O=C(NCCN1CCN(c2ccccc2)CC1)C1(S(=O)(=O)c2ccc(Cl)cc2)CC1 | -12.6
11 | CCOC(=O)c1c(NS(=O)(=O)Cc2ccccc2)sc2c1CCCC2 | 4.35
12 | Fc1ccc(-c2cc(C(F)(F)F)nc(NCc3cccs3)n2)cc1 | 9.77
13 | Cc1ccc(NC(=O)NCCN2C(=O)C3C4C=CC(C4)C3C2=O)cc1 (centres unmarked) | 5.44
14 | COc1ccc(/C=C/C(=O)N(C)c2ccccc2C(=O)O)cc1 | 1.46
15 | COc1ccc(CN(C)C(=O)CCN=C2NS(=O)(=O)c3ccccc32)c(OC)c1 | 2.21
16 | Nc1ccc(N2CCOCC2)c(S(=O)(=O)Nc2cc(Cl)ccc2Cl)c1 | 4.83
17 | O=C(c1ccco1)N1CCN(c2ccc([N+](=O)[O-])cn2)CC1 | -40.2
18 | CN(CC1CCCN(CCc2ccc(Cl)cc2)C1)C(=O)c1ccco1 (centres unmarked) | 11.1
19 | Fc1nc(N2CCCC2)c(F)c(Oc2ccccc2Oc2c(F)c(F)nc(N3CCCC3)c2F)c1F | 6.4
20 | Cc1cc2ncn(C(=O)N3CCCCC3)c2cc1C | 8.99
21 | COc1ccc(CN2CCC(C(N)=O)CC2)cc1OCc1ccccc1.O=C(O)C(=O)O | 15.7
22 | O=C1NC2(CCCCCC2)C(=O)N1Cc1ccc(F)cc1Cl | 9.12

Row | Compound | hERG current change (%, negative = inhibition) at 1uM [%]
23 | COc1ccc(/C=C/C(=O)NC(=S)NNC(=O)c2cccs2)cc1OC | 9.55
24 | CCOC(=O)CSc1nnc(CNc2ccc(Cl)cc2)n1Cc1ccccc1 | 8.95
25 | Cc1cccc(NC(=O)CSc2nc3ccccc3c(=O)n2C)c1 | 2.45
26 | CCCOc1cccc(C(=O)NC(=S)Nc2ccc(N3CCN(C)CC3)cc2)c1 | 11.2
27 | Cc1ccc(S(=O)(=O)N2CCCCC2CCNC(=O)C(=O)NCc2ccccc2C)cc1 (centres unmarked) | 10.6
28 | COc1ccccc1N1CC(C)C(=O)NC1=S (centres unmarked) | 15
29 | Cc1c(C(=O)N2CCc3ccccc32)oc2ccccc12 | 12.4
30 | CC1CN(C(=O)CN2C(=O)c3ccccc3S2(=O)=O)CC(C)O1 (centres unmarked) | 9.92
31 | COc1ccc(Nc2nc(N3CCCC3)nc3ccccc23)c(OC)c1 | -7.36
32 | CC1CCN(C(=O)CSc2nc3cccnc3n2C)CC1 | 5.46
33 | CCOC(=O)c1ccc(N2C(=O)CC(C(=O)OC)=C2C)cc1 | 19.6
34 | CN(C)c1ccc(P(=O)(COc2ccc([N+](=O)[O-])cc2)c2ccc(N(C)C)cc2)cc1 | -7.21
35 | CCc1nnc(NC(=O)CSc2nc(N)c(NC(=O)c3ccc(OC)cc3)c(=O)[nH]2)s1 | 12.3
36 | CCOCCc1nn2c(=O)cc(CSCC(=O)Nc3cc(C)cc(C)c3)nc2s1 | 6.35
37 | O=C(/C=C/c1ccccc1)NC(=S)Nc1ccc2c3c(cccc13)CC2 | 17.4
38 | Cc1ccc(C(=O)N=c2sccn2C)o1 | 16
39 | COc1ccc(-c2ccc(S(=O)(=O)NCC3CCCO3)cc2)cc1 (centres unmarked) | 8.43
40 | C=CCNC(=O)c1ccc(Cn2c(=S)[nH]c3cc4c(cc3c2=O)OCO4)cc1 | 15.7
41 | COc1cccc2cc(C(=O)Nc3cc(C)cc(C)c3)/c(=N/NS(=O)(=O)c3ccccc3)oc12 | 14.3
42 | CCOc1ccccc1N1CCN(C(=O)C2CSC3(C)CCC(=O)N23)CC1 (centres unmarked) | 5.01
43 | CC1CCN(C(=O)C2Cc3ccccc3CN2S(=O)(=O)c2ccc(F)cc2)CC1 (centres unmarked) | 8.64
44 | Cl.O=C(O)CCCCCNc1nc(-c2ccccc2)nc2ccccc12 | 2.37
